Assay results published in PubChem BioAssay AID1347043 (National Center for Advancing Translational Sciences (NCATS), 2019).
About 1,900 (2.5%) of roughly 76,000 compounds were called active. The inconclusive results got no clear call from the source; some entries with a clear call stand among them for comparison. Calls come from the whole dose curve; as a rule, active = well fitted inhibition curve with a large enough effect; inconclusive = small, poorly fitted or top-dose-only effect; inactive = flat fitted curve, though single readings scatter. Where the call is inconclusive, the potency comes from a doubtful curve fit.

Biological target: Luciferin 4-monooxygenase (Photinus pyralis) (UniProt P08659)
Sequence of UniProt P08659 (P08659 whole entry, looked up): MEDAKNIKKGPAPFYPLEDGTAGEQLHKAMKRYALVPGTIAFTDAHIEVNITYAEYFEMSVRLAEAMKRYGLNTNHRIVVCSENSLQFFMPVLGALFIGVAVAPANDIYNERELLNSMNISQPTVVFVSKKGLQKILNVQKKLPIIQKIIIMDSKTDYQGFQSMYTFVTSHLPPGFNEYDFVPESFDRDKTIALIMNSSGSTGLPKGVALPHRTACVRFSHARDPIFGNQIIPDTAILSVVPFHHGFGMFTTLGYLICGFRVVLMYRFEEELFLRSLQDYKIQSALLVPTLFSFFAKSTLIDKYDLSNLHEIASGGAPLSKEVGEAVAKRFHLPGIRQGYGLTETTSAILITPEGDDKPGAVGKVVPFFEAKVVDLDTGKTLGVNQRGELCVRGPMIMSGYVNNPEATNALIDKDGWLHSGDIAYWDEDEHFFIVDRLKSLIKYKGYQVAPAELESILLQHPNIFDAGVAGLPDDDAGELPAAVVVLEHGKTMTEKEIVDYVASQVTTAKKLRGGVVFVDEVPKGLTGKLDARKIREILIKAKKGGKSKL
Test: Firefly luciferase inhibition profiling of diverse chemical library using quantitative high-throughput screening; note: nearly all actives have a fitted effect of over 65% in size
Conditions: purified P. pyralis luciferase, luminescence, biochemical; activity change, negative = inhibition: at 115 µM (top of the series) unless noted
How it was run: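 Purified P. pyralis luciferase (10nM final) in 50mM Tris acetate pH 7.5, 10mM Mg acetate, 0.01% Tween-20, 0.05% BSA with 10uM D-luciferin and 10uM ATP. Compounds titrated qHTS. Luminescence imaged on CCD.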
% is set by controls: 0 for no effect and ±100 for the full control effect; potency is the fitted concentration of half-maximal effect; tags give direction and shape of the fitted curve.

Row | SMILES | Potency | activity change, negative = inhibition
1 | O=C(NCc1ccnc2[nH]ccc12)c1ccc2ccccc2n1 | inconclusive: 89.1 µM [inhibitor, partial curve] | 
2 | COc1ccc(C)cc1NC(=O)N1c2ccccc2CC1c1nc(C2CC2)no1 (stereo not drawn) |  | inactive: -6.88%
3 | CN1CC[C@H](c2nc3ccc(C(F)(F)F)cc3[nH]2)C1 | inconclusive: 89.1 µM [inhibitor, partial curve] | 
4 | CCOc1ccccc1C1NC(=O)N(CC(=O)Nc2ccc(C)c(C)c2)C2=C1C(=O)OC2 (stereo not drawn) | inconclusive: 39.8 µM [inhibitor, partial curve, poor fit] | 
5 | O=C(Cc1c[nH]c2ncc(-c3ccc(F)cc3)cc12)NCc1cccnc1 | inconclusive: 50.1 µM [inhibitor, partial curve] | 
6 | O=C(c1cnccn1)N1CCc2onc(C(c3ccccc3)c3ccccc3)c2C1 | inconclusive: 44.7 µM [inhibitor, partial curve] | 
7 | COc1cccc(-c2cc(C(=O)N3CCc4c(c(-c5nncn5C)nn4C)C3)[nH]n2)c1 | inconclusive: 35.5 µM [inhibitor, full curve] | 
8 | CN(C)c1ccc(-c2nnc([C@H]3CCN(C(=O)CCC(=O)O)C3)o2)cc1 | inconclusive: 100 µM [inhibitor, partial curve] | 
9 | Cc1nn2c(c1-c1ccccc1[S+](C)(=O)[O-])N(C(=O)Cc1ccccc1)CCC2 |  | inactive: 0.111% [at 172 µM]
10 | Cc1ccc(-c2nc(C(=O)NCc3ccco3)no2)cc1 | active: 15.8 µM | 
11 | CCc1cccc(NC(=O)C2CCN(C(=O)c3nnn4c3COC(c3ccc(OC)cc3)C4)CC2)c1 (stereo not drawn) |  | inactive: -6.34%
12 | CS(=O)(=O)N1CCOc2ccc(CCC(=O)NCCc3ccccc3)cc2C1 | inconclusive: 50.1 µM [inhibitor, partial curve, poor fit] | 
13 | CN1CCC2(C1)CN(CC1CC1)c1ccc(C(=O)Nc3ccccc3)cc12 (stereo not drawn) | inconclusive: 56.2 µM [inhibitor, partial curve] | 
14 | O=C(COc1ccc(F)cc1)N1CC(Oc2ccc(-c3nc(-c4ccccc4)no3)cc2)C1 | inconclusive: 11.2 µM [inhibitor, full curve] | 
15 | COc1cc(Nc2nc(-c3ccccc3F)no2)cc(OC)c1OC | inconclusive: 10 µM [inhibitor, full curve] | 
16 | Cc1nn(-c2ccc(C(C)C)cc2)c(C)c1[C@@H]1C=C[C@@H](NC(=O)Nc2ccc(Cl)cc2)C1 |  | inactive: -29.8%
17 | Cc1ccc(NC(=O)N2CCC(OC3CCN(S(C)(=O)=O)CC3)CC2)cc1 | inconclusive: 50.1 µM [inhibitor, partial curve] | 
18 | Cc1ccc(C(=O)NC2CCCN(c3cc(-c4ccccc4)[nH]n3)C2)s1 (stereo not drawn) | inconclusive: 39.8 µM [inhibitor, partial curve] | 
19 | O=C(Nc1cccc(-c2ccc(N3CCOCC3)nn2)c1)Nc1ccccc1C(F)(F)F | active: 2.24 µM | 
20 | NC(=O)CN1CCCC(c2nc(-c3ccc4nc[nH]c4c3)no2)C1 (stereo not drawn) |  | inactive: -13.3%
21 | COCC(=O)NC[C@H]1O[C@@H](CO)[C@@H](O)[C@H]1N1CCN(c2ccccn2)CC1 |  | inactive: 2.78%
22 | O=C(Cc1cccc(F)c1)N1CCC(n2cc(-c3nc(-c4ccccc4)no3)nn2)C1 (stereo not drawn) | inconclusive: 56.2 µM [inhibitor, partial curve] | 

Row | SMILES | Potency | activity change, negative = inhibition
23 | CCCS(=O)(=O)N1CCc2c(sc3ncnc(N(C)C)c23)C1 |  | inactive: -0.183%
24 | O=C(O)COc1ccc(-c2nccc3c2C(=O)N(Cc2c[nH]c4ccccc24)CC(COc2ccccc2)O3)cc1 (stereo not drawn) | inconclusive: 79.4 µM [inhibitor, single point] | 
25 | CN(Cc1ccco1)C(=O)c1cccc2c1CCN2C(=O)Nc1ccccc1 | active: 1.26 µM | 
26 | Cn1nc(C2CCN(C(=O)c3ccc(F)cc3)CC2)c2c1CCOC2 |  | inactive: -1.42%
27 | COCC(=O)N[C@@H]1CN(C(=O)C2CC2)CC[C@@H]1c1nc(C)no1 |  | inactive: -2.19%
28 | COc1cccc(-c2cc3c(=O)n(CCNC(=O)c4ccccc4Cl)ccn3n2)c1 | active: 12.6 µM | 
29 | COCCN1C(=O)c2cccn2CC1CNC(=O)CCc1nc2ccccc2[nH]1 (stereo not drawn) |  | inactive: 9.53%
30 | O=C(c1ccco1)N1CC(Oc2ccccc2-c2nc(-c3ccccc3)no2)C1 | inconclusive: 17.8 µM [inhibitor, full curve] | 
31 | Cc1cc(C(=O)N2CC(Oc3ccc(-c4nc(-c5ccccc5)no4)cc3)C2)n(C)n1 | inconclusive: 15.8 µM [inhibitor, full curve] | 
32 | O=C(O)COCC(=O)N[C@H]1CCN2C(=O)c3cc(/C=C/c4ccccc4)ccc3NC(=O)[C@H]12 | active: 7.94 µM | 
33 | Cc1ccc(NC(=O)C2CCN(C(=O)c3nnn4c3COC(c3ccc(C)cc3)C4)CC2)cc1 (stereo not drawn) | inconclusive: 35.5 µM [inhibitor, partial curve] | 
34 | COc1ccc(-c2ccc3c(c2)C(=O)N2CC[C@H](NC(=O)CSC)C[C@H]2C(=O)N3)cc1 | inconclusive: 79.4 µM [inhibitor, partial curve] | 
35 | c1ccc2cc(-c3noc([C@@H]4Cc5nc[nH]c5CN4CC4CCCCC4)n3)ccc2c1 | inconclusive: 63.1 µM [inhibitor, full curve] | 
36 | Fc1cc(Nc2cnc3ccc(-n4ccnc4)nn23)cc(N2CCOCC2)c1 | inconclusive: 22.4 µM [inhibitor, full curve] | 
37 | CCOc1ccc(-c2cc3c(=O)n(CCNC(=O)c4cnccn4)ccn3n2)cc1 | inconclusive: 2.82 µM [inhibitor, full curve, poor fit] | 
38 | Cc1nn(-c2ccccc2[N+](=O)[O-])c(C)c1[C@@H]1C=C[C@@H](NC(=O)Nc2cccc(C#N)c2)C1 | inconclusive: 39.8 µM [inhibitor, full curve, poor fit] | 
39 | COc1ccc(-c2ccc3nc(-c4cc5c(cc4Br)OCO5)oc3c2)c(OC)c1OC |  | inactive: -19.9%
40 | Cc1ccc(CN2CCCC(c3nc(-c4cccnc4)no3)CCNC(=O)CC2)o1 (stereo not drawn) |  | inactive: -1.45%
41 | CCn1cc(CN2CCN(C(=O)c3ccsc3)CC2)ccc1=O | inconclusive: 50.1 µM [inhibitor, partial curve] | 
42 | O=C(NC1CCCC1)c1ccc(-c2ccc(N3CCCCC3)nc2)cc1 |  | inactive: -19.3%
43 | COc1ccc(C2Cn3nnc(-c4nc(-c5cccc(C)c5)no4)c3CO2)cc1 (stereo not drawn) | inconclusive: 15.8 µM [inhibitor, full curve] | 
